Source: patent US20120027773A1 (AVEO PHARMACEUTICALS, published 2012)

How the values were obtained:
[1] = target: T1, recombinant human RON SEMA and PSI domains (human, UniProt Q04912 25-571); experiment: SPR, purified Ab captured on anti-human IgG Fc, 37 C
T1 construct: domain: SEMA+PSI; Commercial protein (R&D Systems); also called rhRON SEMA+PSI; hRON SEMA+PSI
Protocol: (§1) Goat anti-human IgG Fc (Jackson ImmunoResearch, Catalog No. 109-005-098) was immobilized on carboxymethylated dextran CM4 sensor chips (Biacore) by amine coupling (Biacore) using a standard coupling protocol according to the vendor's instructions. The analyses were performed at 37° C. using PBS (Invitrogen) containing 0.05% surfactant P20 (Biacore) as running buffer.
(§2) The antibodies were captured in individual flow cells at a flow rate of 60 μl/minute. Injection time was varied for each antibody to yield an Rₘₐₓ between 30 and 60 RU. Buffer or rhRON SEMA+PSI diluted in running buffer was injected sequentially over a reference surface (no antibody captured) and the active surface (antibody to be tested) for 300 seconds at 60 μl/minute. The dissociation phase was monitored for up to 1200 seconds. The surface was then regenerated with two 60 second injections of Glycine pH 2.25 (made from Glycine pH 2.0 (Biacore) and pH 2.5 (Biacore)) at 60 μl/minute. For the initial screening, only one or two concentrations of rhRON SEMA+PSI were tested, typically 10.0 and 2.5 nM (results are summarized in Table 20).
The binding affinities and kinetics of certain purified monoclonal antibodies were also determined. To further characterize certain antibodies, the surface plasmon resonance experiments described above were conducted using concentrations of rhRON SEMA+PSI between 0.3125 nM and 10.0 nM (a 2-fold serial dilution).

[2] = target: T1, recombinant human RON SEMA and PSI …; experiment: SPR, purified Ab captured on anti-human IgG Fc, 25 C
[3] = target: T1, recombinant human RON SEMA and PSI …; experiment: SPR, Ab captured on anti-human IgG Fc, 37 C, screening
Protocol: as §1, §2
Kinetic parameters were determined using the kinetic function of the BIAevaluation software (Biacore) with double reference subtraction. Kinetic parameters for each antibody, kₐ (association rate constant), kd (dissociation rate constant) and KD (equilibrium dissociation constant) were determined. Certain monoclonal antibodies were screened using cell culture media supernatant containing secreted antibody, and kinetic values of the monoclonal antibodies on rhRON SEMA+PSI at 37° C. are summarized in Table 20.

Kd [1]: 0.86 nM
koff [1]: 0.0007 s⁻¹
kon [1]: 820000 M⁻¹ s⁻¹
Kd [2]: 0.36 nM
koff [2]: 0.0002 s⁻¹
kon [2]: 530000 M⁻¹ s⁻¹
Kd [3]: 1.1 nM
koff [3]: 0.00076 s⁻¹
kon [3]: 670000 M⁻¹ s⁻¹
B1: Sh29B06-1 (antibody, human IgG1, kappa)
heavy: EVQLQESGPSLVKPSQTLSLTCSVTGDSITSGYWNWIRKFPGNKLEYMGYISYSGKTYYNPSLKSRISITRDTSKNHYYLQLISVTAEDTATYYCARSKYDYAMDYWGQGTSVTVSSASTKGPSVFPLAPSSKSTSGGTAALGCLVKDYFPEPVTVSWNSGALTSGVHTFPAVLQSSGLYSLSSVVTVPSSSLGTQTYICNVNHKPSNTKVDKRV[letters of human IgG1 Fc left out]
light: DIVLTQSPASLAVSLGQRATISCRASEIVDNFGISFMNWFQQKPGQPPKLLIYAASNQGSGVPARFSGSGSGTDFSLNIHPVEEDDTAMYFCQQSKEVPPTFGGGTKLEIKRTVAAPSVFIFPPSDEQLKSGTASVVCLLNNFYPREAKVQWKVDNALQSGNSQESVTEQDSKDSTYSLSSTLTLSKADYEKHKVYACEVTHQGLSSPVTKSFNRGEC
notes: Chimeric: mouse variable regions, human IgG1/kappa; also called Chimeric 29B06
